# Where “and” joins values, the source holds several entries; their conditions need not be identical. Identical values can stand only once. The shares of active, inactive and inconclusive entries below differ from those in the screen. For some assays here: A potency beside an inconclusive call is a rough fit, not a confirmed value. Calls of active or inactive are those of the source. Unless noted, the call rests on the fitted dose curve; in most records, active means well fitted curve in the direction sought with a large enough effect in the repeat runs; inconclusive means weak or mixed curves; inactive means no such curve, though single readings can be large; an effect the other way counts as inactive or inconclusive.
# Assays:
# [1] = qHTS assay to identify small molecule antagonists of the estrogen receptor alpha (ER-alpha) signaling pathway - cell viability counter screen (AID 743074; calls by dose curve; further: nearly all actives have a fitted effect of over 45% in size; further: potency means the concentration at half of the fitted maximal effect)
# [2] = biological target: Vitamin D3 receptor (Homo sapiens) (UniProt P11473); experiment: qHTS assay to identify small molecule agonists of the vitamin D receptor (VDR) signaling pathway (AID 743222; calls by dose curve; further: potency means the concentration at half of the fitted maximal effect; on activation: on the % scale 0 is the no-effect control and ±100 the full control effect); settings: HEK293T VDR-UAS-bla, beta-lactamase FRET ratio, 16 h; activation: at 63.5 µM (top of the series) unless noted
# UniProt P11473, sequence (P11473 whole entry, looked up): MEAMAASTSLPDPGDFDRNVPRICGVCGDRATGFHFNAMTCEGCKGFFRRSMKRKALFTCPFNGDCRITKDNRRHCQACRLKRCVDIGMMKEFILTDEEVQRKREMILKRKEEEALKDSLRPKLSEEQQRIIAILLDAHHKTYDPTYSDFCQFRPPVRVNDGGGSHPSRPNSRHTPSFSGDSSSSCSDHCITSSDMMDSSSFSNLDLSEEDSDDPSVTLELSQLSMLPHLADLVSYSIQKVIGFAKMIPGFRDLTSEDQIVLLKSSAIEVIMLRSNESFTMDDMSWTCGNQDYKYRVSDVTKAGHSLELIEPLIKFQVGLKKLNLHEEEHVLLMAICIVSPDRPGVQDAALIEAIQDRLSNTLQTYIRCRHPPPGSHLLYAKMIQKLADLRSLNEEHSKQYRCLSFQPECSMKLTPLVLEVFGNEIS
# In short: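 Cells carrying a VDR-driven beta-lactamase reporter are seeded at 2,000 per well and rested 4 h. Compounds in DMSO are added for 16 h at 37C, and FRET substrate fluorescence is measured after 2 h at room temperature.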
# [3] = qHTS assay to identify small molecule antagonists of the estrogen related receptor signaling pathway with the pleiotropic PPARgamma coactivator (PGC) from Tox21 10K library (AID 1224841; call rule not given here; further: actives are mostly falling curves and most rising ones were filed inactive; nearly all actives have a fitted effect of over 50% in size; further: potency means the concentration at half of the fitted maximal effect)
# In short: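 Steps: plate 2,000 PGC/ERR cells per well; incubate 6 h at 37 C with 5% CO2; transfer compounds from DMSO stocks by pin tool; incubate 18 h at 37 C; add One-Glo; measure luminescence 30 min later.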
# [4] = qHTS assay to identify small molecule agonists of H2AX - cell viability counter screen (AID 1224847; calls by dose curve; further: potency means the concentration at half of the fitted maximal effect; nearly all actives have a fitted effect of over 30% in size)
# In short: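 Cytotoxicity counter screen in wild-type CHO-K1 cells: a 3 hr compound treatment at 37C across 15 concentrations, followed by CellTiter-Glo luminescence to gauge viable cells.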
# [5] = qHTS RealTime-Glo MT Cell Viability Assay in HEK293 cells - 8 hour (AID 1224887); further: nearly all actives have a fitted effect of over 50% in size; further: potency means the concentration at half of the fitted maximal effect
# In short: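 Real-time viability in HEK293: signal arises when living cells convert a prosubstrate for NanoLuc in the medium, so luminescence tracks viable cell number. Compound (23 nL, DMSO) added 5 h post-seeding; kinetic reads at 0–40 h, 37 C.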
# [6] = qHTS assay to identify small molecule antagonists of the sonic hedgehog signaling (Shh) pathway (AID 1259369; calls by dose curve; further: nearly all actives have a fitted effect of over 45% in size; further: potency means the concentration at half of the fitted maximal effect)
# In short: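 Cells are plated and held 4hr at 37 C, compounds (DMSO) are pinned in, conditioned medium is added to stimulate the pathway, and after 24hr luciferase reagent is added for 30min before luminescence is read.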
# [7] = qHTS assay to identify small molecule agonists of the estrogen receptor beta (ER-beta) signaling pathway - cell viability counter screen (AID 1259380); further: nearly all actives have a fitted effect of over 30% in size; further: potency means the concentration at half of the fitted maximal effect; on activity change, negative = cytotoxicity: on the % scale 0 is the no-effect control and ±100 the full control effect
# In short: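 Cytotoxicity is measured in parallel with the reporter screen: after 16 hr compound exposure at 37C and a 2 hr LiveBLAzer step, CellTiter-Glo is added to the same ER-beta-UAS-bla HEK293T wells and luminescence read after 30 min.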
# [8] = qHTS assay to identify small molecule antagonists of the progesterone receptor (PR) signaling pathway - cell viability counter screen (AID 1346798); further: nearly all actives have a fitted effect of over 50% in size; further: potency means the concentration at half of the fitted maximal effect
# In short: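 Counter screen for cytotoxicity: viability of PR-UAS-bla HEK293T cells was measured with CellTiter-Glo luminescence following 16 hr compound exposure in the presence of R5020.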
# [9] = biological target: Cytochrome P450 2D6 (Homo sapiens) (UniProt P10635); experiment: Cytochrome P450 Family 2 Subfamily D Member 6 (CYP2D6) small molecule antagonists: luciferase reporter qHTS assay (AID 1671196); further: nearly all actives have a fitted effect of over 50% in size; further: potency means the concentration at half of the fitted maximal effect
# UniProt P10635, sequence (P10635 whole entry, looked up): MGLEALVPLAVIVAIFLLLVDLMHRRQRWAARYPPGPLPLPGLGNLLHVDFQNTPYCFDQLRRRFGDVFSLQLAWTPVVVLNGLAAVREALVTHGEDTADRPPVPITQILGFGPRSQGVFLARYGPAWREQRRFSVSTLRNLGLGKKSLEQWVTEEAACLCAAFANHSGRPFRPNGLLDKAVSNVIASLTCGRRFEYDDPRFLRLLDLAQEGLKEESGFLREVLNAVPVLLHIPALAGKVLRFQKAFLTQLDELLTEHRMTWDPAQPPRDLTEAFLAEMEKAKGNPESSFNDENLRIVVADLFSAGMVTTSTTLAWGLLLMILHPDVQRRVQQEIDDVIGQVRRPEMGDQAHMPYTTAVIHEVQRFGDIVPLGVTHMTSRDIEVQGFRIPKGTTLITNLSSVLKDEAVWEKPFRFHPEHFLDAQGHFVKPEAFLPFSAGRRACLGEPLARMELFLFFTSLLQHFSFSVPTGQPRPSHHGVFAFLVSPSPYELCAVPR
# In short: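 Enzyme and proluciferin substrate were first combined with test chemical for 10 min at room temperature. Adding NADPH regeneration solution started a 1 h reaction, stopped with luciferin detection reagent and read by luminescence 20 min later.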
# [10] = qHTS assay to identify small molecule antagonists of the peroxisome proliferator-activated receptor delta (PPARd) signaling pathway - cell viability counter screen (AID 743213); settings: PPARd-bla HEK293H viability, CellTiter-Glo luminescence, 17 h; viability change, negative = cytotoxic: at 62 µM (top of the series) unless noted; further: nearly all actives have a fitted effect of over 50% in size; further: potency means the concentration at half of the fitted maximal effect
# In short: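 In this counter screen, HEK293H cells carrying a UAS-beta-lactamase reporter are co-treated with test compounds and 300 nM L165041 (final) for 17 h at 37 C; cell viability is quantified by CellTiter-Glo luminescence.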
# [11] = Human pregnane X receptor (PXR) small molecule agonists, qHTS cell viability counter screen (AID 1346977)
# In short: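 Cytotoxicity counter screen run in the same wells as the PXR luciferase assay, using PXR-Luc HepG2 cells in charcoal-stripped serum medium. Viability: CellTiter-Fluor fluorescence after 24hr compound treatment.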
# [12] = biological target: Estrogen receptor (Homo sapiens) (UniProt P03372); experiment: qHTS assay to identify small molecule antagonists of the estrogen receptor alpha (ER-alpha) signaling pathway (AID 743069; active means well fitted curve in the direction sought with a large enough effect in the signal ratio in the repeat runs, not every such curve was filed as active; inconclusive means weak or mixed curves, or effect the other way; inactive means no such curve, though single readings can be large or run the other way; the % refers to the signal ratio; further: potency means the concentration at half of the fitted maximal effect); settings: HEK293 ER-alpha-UAS-bla, beta-lactamase ratio, antagonist mode; activity, negative = inhibition: at 69.4 µM (top of the series) unless noted
# UniProt P03372, sequence (P03372 whole entry, looked up): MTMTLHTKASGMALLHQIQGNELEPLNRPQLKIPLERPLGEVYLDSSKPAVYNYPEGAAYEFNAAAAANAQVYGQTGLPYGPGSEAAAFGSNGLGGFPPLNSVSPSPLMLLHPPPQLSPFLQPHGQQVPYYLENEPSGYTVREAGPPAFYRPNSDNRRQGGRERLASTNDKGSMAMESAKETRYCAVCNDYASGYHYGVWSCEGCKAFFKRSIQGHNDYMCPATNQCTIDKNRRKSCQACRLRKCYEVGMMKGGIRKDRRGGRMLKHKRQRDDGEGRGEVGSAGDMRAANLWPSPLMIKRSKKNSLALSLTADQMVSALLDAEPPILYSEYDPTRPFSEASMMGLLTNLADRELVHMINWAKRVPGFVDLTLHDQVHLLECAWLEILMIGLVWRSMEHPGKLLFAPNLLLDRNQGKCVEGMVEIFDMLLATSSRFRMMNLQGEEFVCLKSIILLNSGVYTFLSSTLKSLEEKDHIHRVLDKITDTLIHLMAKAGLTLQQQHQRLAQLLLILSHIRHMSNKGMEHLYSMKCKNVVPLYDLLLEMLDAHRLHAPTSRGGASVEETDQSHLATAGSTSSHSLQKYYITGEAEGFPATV
# In short: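 Fluorescence intensity from a beta-lactamase FRET substrate served as the read-out. Cells: HEK293 with stably integrated ER-alpha-UAS-bla reporter. Agonist 17beta-estradiol was co-added with compounds; incubation 18 hr at 37C, substrate 2 hr at room temperature.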
# [13] = biological target: Peroxisome proliferator-activated receptor delta (Homo sapiens) (UniProt Q03181); experiment: qHTS assay to identify small molecule agonists of the peroxisome proliferator-activated receptor delta (PPARd) signaling pathway (AID 743212; calls by dose curve;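 further: HEK293H cells with PPARd UAS beta-lactamase reporter GeneBLAzer system; on the % scale 0 is the no-effect control and ±100 the full control effect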); settings: HEK293H PPARd-UAS-bla, beta-lactamase FRET ratio, 17 h; activation: at 62.6 µM (top of the series) unless noted
# UniProt Q03181, sequence (Q03181 whole entry, looked up): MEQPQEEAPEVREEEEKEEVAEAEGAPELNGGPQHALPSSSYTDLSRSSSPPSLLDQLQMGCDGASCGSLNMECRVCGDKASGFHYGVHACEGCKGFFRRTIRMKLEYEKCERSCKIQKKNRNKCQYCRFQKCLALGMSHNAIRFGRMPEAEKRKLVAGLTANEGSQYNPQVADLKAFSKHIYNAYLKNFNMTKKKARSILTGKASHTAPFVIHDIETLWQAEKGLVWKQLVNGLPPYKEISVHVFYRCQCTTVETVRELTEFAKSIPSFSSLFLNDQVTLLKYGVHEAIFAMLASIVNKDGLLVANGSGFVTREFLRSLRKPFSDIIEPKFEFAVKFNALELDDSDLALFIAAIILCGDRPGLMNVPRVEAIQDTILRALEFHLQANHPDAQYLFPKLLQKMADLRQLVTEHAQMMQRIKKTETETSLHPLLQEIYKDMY
# In short: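 Steps: seed PPARd-bla HEK293H cells; incubate 5 h, 37 C, 5% CO2; add compounds in DMSO; incubate, 37 C; add LiveBLAzer B/G FRET substrate; hold 2 h at room temperature; measure fluorescence.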
# [14] = biological target: Nuclear receptor subfamily 1 group I member 3 (Homo sapiens) (UniProt Q14994); experiment: qHTS assay to identify small molecule agonists of the constitutive androstane receptor (CAR) signaling pathway (AID 1224839); further: nearly all actives have a fitted effect of over 15% in size; further: potency means the concentration at half of the fitted maximal effect
# UniProt Q14994, sequence (Q14994 whole entry, looked up): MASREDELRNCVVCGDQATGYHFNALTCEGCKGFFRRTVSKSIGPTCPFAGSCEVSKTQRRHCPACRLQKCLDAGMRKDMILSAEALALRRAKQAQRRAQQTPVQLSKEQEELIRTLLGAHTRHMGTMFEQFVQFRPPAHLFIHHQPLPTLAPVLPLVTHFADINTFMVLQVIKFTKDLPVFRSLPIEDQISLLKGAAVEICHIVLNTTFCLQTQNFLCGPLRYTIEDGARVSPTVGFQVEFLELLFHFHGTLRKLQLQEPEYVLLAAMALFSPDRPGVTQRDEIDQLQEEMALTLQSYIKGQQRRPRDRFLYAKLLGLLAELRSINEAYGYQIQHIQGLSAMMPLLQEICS
# In short: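 Cells were plated and incubated 4 hrs, then dosed with compounds at 15 concentrations. PK11195 was added to 0.75 uM final. After 24 hrs at 37 C, luciferase luminescence was measured.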
# [15] = biological target: Estrogen receptor beta (Homo sapiens) (UniProt Q92731); experiment: qHTS assay to identify small molecule agonists of the estrogen receptor beta (ER-beta) signaling pathway (AID 1259377; active means well fitted activation curve with a large enough effect in the signal ratio in the repeat runs, not every such curve was filed as active; inconclusive means weak or mixed curves, or effect the other way; the % refers to the signal ratio; further: potency means the concentration at half of the fitted maximal effect); settings: ER-beta-UAS-bla HEK293T, beta-lactamase FRET ratio, 16 h; activation: at 92.4 µM (top of the series) unless noted
# UniProt Q92731, sequence (Q92731 whole entry, looked up, the tested form may be a part): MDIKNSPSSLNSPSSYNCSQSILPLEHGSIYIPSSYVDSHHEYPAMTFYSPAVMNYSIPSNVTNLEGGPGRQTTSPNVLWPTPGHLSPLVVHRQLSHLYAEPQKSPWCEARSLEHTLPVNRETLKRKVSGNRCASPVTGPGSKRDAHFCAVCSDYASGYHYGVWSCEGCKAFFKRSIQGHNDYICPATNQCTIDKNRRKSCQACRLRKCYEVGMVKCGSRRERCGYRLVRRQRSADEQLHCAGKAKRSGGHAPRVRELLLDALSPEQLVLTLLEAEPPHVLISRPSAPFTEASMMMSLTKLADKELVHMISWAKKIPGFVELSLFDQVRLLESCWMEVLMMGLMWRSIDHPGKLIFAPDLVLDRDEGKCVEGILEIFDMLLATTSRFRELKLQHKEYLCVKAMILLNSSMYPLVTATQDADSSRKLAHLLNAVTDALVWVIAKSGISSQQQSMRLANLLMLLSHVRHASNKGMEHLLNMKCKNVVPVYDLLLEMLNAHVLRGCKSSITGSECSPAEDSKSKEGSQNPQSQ
# In short: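 Agonist mode cell assay in GripTite HEK293T cells expressing an ER-beta fusion that drives beta-lactamase from an Upstream Activator Sequence; 16 hr compound exposure at 37C, then 2 h LiveBLAzer B/G FRET substrate at room temperature, fluorescence read-out.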
# [16] = qHTS assay for identifying genotoxic compounds that show differential cytotoxicity against isogenic chicken DT40 cell lines with known DNA damage response pathways - Rad54/Ku70 mutant cell line (AID 743015); settings: DT40 Rad54/Ku70 mutant viability, CellTiter-Glo, 40 h; activity change, negative = cytotoxicity: at 66.8 µM (top of the series) unless noted; further: nearly all actives have a fitted effect of over 60% in size; further: potency means the concentration at half of the fitted maximal effect
# [17] = qHTS assay to identify small molecule agonists of H2AX (AID 1224845; active means well fitted activation curve with a large enough effect in the signal ratio in the repeat runs, not every such curve was filed as active; inconclusive means weak or mixed curves; the % refers to the signal ratio; further: on the % scale 0 is the no-effect control and ±100 the full control effect); settings: CHO-K1 phospho-H2AX Ser139 HTRF, 3 h; activation (H2AX phosphorylation): at 154 µM (top of the series) unless noted
# In short: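 Phospho-H2AX Ser139 measured by HTRF (ex 320 nm; em 665 and 620 nm) after 24 hr antibody incubation. Compounds, 15 concentrations, 0.76% DMSO, were applied to CHO-K1 cells for 3hr at 37C before lysis.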
# [18] = qHTS assay to identify small molecule agonists of the constitutive androstane receptor (CAR) signaling pathway - cell viability counter screen (AID 1224836); further: on the % scale 0 is the no-effect control and ±100 the full control effect; nearly all actives have a fitted effect of over 45% in size
# In short: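 Cells were seeded and incubated 4 hrs. Compounds were added across 15 concentrations together with PK11195 at 0.75 uM final. Plates were incubated 23 hrs at 37 C. CellTiter-Fluor was added and fluorescence measured.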
# [19] = qHTS RealTime-Glo MT Cell Viability Assay in HEK293 cells - 32 hour (AID 1224868); further: nearly all actives have a fitted effect of over 50% in size; further: potency means the concentration at half of the fitted maximal effect
# In short: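 Luminescence generated by NanoLuc from substrate produced by living HEK293 cells served as the viability signal. Each value reflects the reading at its stated time point during continuous 40 h compound exposure at 37 C.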
# Tags describe the fitted curve by direction and shape or compound fluorescence and quenching.
smiles,measurement,setting,value
CN(C)c1ccc(Cc2ccc(N(C)C)cc2)cc1,Potency,[1],"inconclusive: 22 µM [cytotoxic, single point]"
same,Potency,[2],inactive
same,Potency,[3],"inconclusive: 19.4 µM [falling, full curve]"
same,Potency,[4],"inconclusive: 127 µM [cytotoxic, single point] and inconclusive: 63.5 µM [cytotoxic, partial curve]"
same,Potency,[5],"inconclusive: 22 µM [cytotoxic, partial curve] and inconclusive: 21.9 µM [cytotoxic, partial curve]"
same,Potency,[6],"inconclusive: 30.8 µM [inhibitor, single point]"
same,Potency,[7],"inactive and inconclusive: 15.4 µM [cytotoxic, partial curve, poor fit]"
same,Potency,[8],"inconclusive: 61.1 µM [rising, partial curve]"
same,Potency,[9],"active: 40.1 µM and inconclusive: 35.6 µM [inhibitor, partial curve]"
CC(C[N+](C)(C)C)OC(N)=O (configuration not stated),Potency,[1],inactive
same,Potency,[10],inactive
same,Potency,[6],inactive
same,Potency,[11],inactive
CC1(COc2ccc(CC3SC(=O)NC3=O)cc2)CCCCC1 (configuration not stated),Potency,[12],"inconclusive: 13.4 µM [fluorescent, partial curve]"
same,Potency,[1],"inconclusive: 23.9 µM [cytotoxic, single point]"
same,activation,[13],inconclusive: -1.27%
same,Potency,[2],"inconclusive: 2.66 µM [rising, partial curve, poor fit]"
same,Potency,[14],"inconclusive: 26.6 µM [activator, partial curve]"
same,Potency,[3],inactive
same,Potency,[15],"inconclusive: 11.9 µM [rising, partial curve]"
same,Potency,[8],"inconclusive: 2.98 µM [cytotoxic, full curve, poor fit]"
CC(C)(C)NC[C@H](O)COc1nsnc1N1CCOCC1,Potency,[16],inconclusive: 33.5 µM [cytotoxic]
same,Potency,[2],inactive
same,Potency,[17],inactive
CC1OC(=O)C(C)OC1=O (configuration not stated),Potency,[13],inactive
same,Potency,[2],inactive
same,Potency,[14],inactive
same,Potency,[17],inactive
same,Potency,[5],inactive
same,Potency,[7],"inconclusive: 68.6 µM [rising, partial curve, poor fit]"
same,Potency,[9],inactive
CCCCCCCCCCCCCCCCI,Potency,[16],inactive
same,Potency,[2],inactive
same,"activity, negative = inhibition",[3],inactive: -7.26% [at 19 µM]
O=C(O)c1cccc(O)c1,Potency,[2],"inconclusive: 55.4 µM [activator, single point]"
same,Potency,[14],inactive
same,Potency,[7],inactive
CCCCCCCCCCOC(C)=O,activation,[2],inconclusive: 6.65%
same,Potency,[14],inactive
same,Potency,[8],inactive
O=c1cc[nH]c(=S)[nH]1,Potency,[16],"inconclusive: 33.5 µM [cytotoxic, single point]"
same,Potency,[10],"inconclusive: 0.119 µM [cytotoxic, full curve, poor fit]"
same,Potency,[14],"inconclusive: 61.5 µM [activator, partial curve]"
same,Potency,[3],"inconclusive: 0.615 µM [falling, single point]"
same,Potency,[7],"inconclusive: 27.5 µM [cytotoxic, full curve]"
COC(=O)c1cc(Cl)ccc1[N+](=O)[O-],Potency,[18],inactive
same,Potency,[5],inactive
same,Potency,[15],inactive
same,Potency,[9],"inconclusive: 31.7 µM [inhibitor, partial curve]"
CCCCCCCCc1ccc(Nc2ccc(CCCCCCCC)cc2)cc1,Potency,[3],active: 11.9 µM
CN1CCCC1,Potency,[1],"inconclusive: 19.5 µM [rising, partial curve, poor fit]"
same,Potency,[2],inactive
same,Potency,[5],"inconclusive: 61.6 µM [rising, single point]"
CC1(C)OC(=O)Nc2ccc(Br)cc21,Potency,[13],inactive
CC1(C)CC(O)CC(C)(C)N1[O],Potency,[14],inactive
same,Potency,[19],inactive
CC(=O)OC(C(=O)c1ccccc1)c1ccccc1 (configuration not stated),Potency,[14],"inconclusive: 38.7 µM [activator, partial curve]"
same,Potency,[19],"inconclusive: 49.2 µM [rising, partial curve]"
same,Potency,[5],"inconclusive: 49.2 µM [rising, partial curve]"
N#Cc1ccc(CC(=O)c2cccc(C(F)(F)F)c2)cc1,Potency,[16],"inconclusive: 27.3 µM [cytotoxic, single point]"
same,Potency,[2],inactive
same,Potency,[14],"inconclusive: 34.4 µM [activator, partial curve]"
same,Potency,[3],"inconclusive: 68.6 µM [falling, single point]"
same,Potency,[19],"inconclusive: 43.6 µM [cytotoxic, partial curve]"
same,Potency,[5],"inconclusive: 54.9 µM [cytotoxic, single point]"
same,Potency,[7],"inconclusive: 68.6 µM [cytotoxic, partial curve, poor fit]"
COc1ccc(OC)c(NC(=O)CC(C)=O)c1,Potency,[2],inactive
same,Potency,[14],"inconclusive: 61.1 µM [activator, single point]"
same,Potency,[8],inactive
COc1ccc(C)cc1N,Potency,[12],inactive
same,Potency,[1],"inconclusive: 53.1 µM [cytotoxic, single point]"
same,Potency,[14],"inconclusive: 66.3 µM [activator, single point] and inconclusive: 68.6 µM [activator, partial curve, poor fit]"
same,Potency,[11],inactive
CCc1c(Br)c(Br)c(Br)c(Br)c1Br,Potency,[14],"inconclusive: 54.5 µM [activator, partial curve]"
same,Potency,[3],"inconclusive: 6.86 µM [falling, single point]"
same,Potency,[15],inactive
same,Potency,[7],inactive

# — PubChem BioAssay (Tox21)
